Test results as given in PubChem BioAssay AID924 (National Center for Advancing Translational Sciences (NCATS), 2007).
About 1,200 (0.92%) of roughly 130,000 compounds were called active. Inconclusive means that the source gave no clear call. Such entries were picked first, then a sample of the others. Calls come from the whole dose curve; as a rule, active = well fitted cell-killing curve with a large enough effect; inconclusive = small, poorly fitted or top-dose-only effect; inactive = no such curve, though single readings can be large or run the other way. Where the call is inconclusive, the potency comes from a doubtful curve fit.

assay: qHTS Screen for Compounds that Selectively Target Cancer Cells with p53 Mutations: Cytotoxicity of p53ts Cells at the Permissive Temperature; conditions: H1299-p53A138V at 32C, ATP luminescence viability, 24 h; activity change, negative = cytotoxicity: at 46.1 µM (top of the series); note: nearly all actives have a fitted effect of over 55% in size;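 for activity change, negative = cytotoxicity: 0% = DMSO and -100% = full killing by reference compound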
Method in brief: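 H1299-p53 A138V cells (temperature-sensitive p53) exposed 24 h to up to 46 uM compound at 32C, where p53 is wild-type in conformation. Viability read as ATP luminescence and normalised to DMSO and 100 uM tamoxifen. AC50 fitted with the Hill equation.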
Potency is the fitted concentration of half-maximal effect; tags give direction and shape of the fitted curve.

Row | Structure (SMILES) | Potency | activity change, negative = cytotoxicity
1 | CCC1CCCCN1C(=O)Cn1c(C(=O)OC)cc2sc(Cl)cc21 (configuration not stated) | inconclusive: 0.398 µM [cytotoxic, full curve, poor fit] | 
2 | COc1cccc(C(=O)Cn2c(=N)n(C)c3ccccc32)c1 | active: 3.16 µM | 
3 | Cc1ccc(C(C)C)c(OCC(=O)Nc2cccc(-c3nc4ncccc4o3)c2)c1 | inconclusive: 15.8 µM [cytotoxic, single point] | 
4 | O=C(c1cccs1)N1CCc2ccccc21 | inconclusive: 12.6 µM [cytotoxic, single point] | 
5 | Cc1ccc(S(=O)(=O)c2c(Nc3ccc(C)c(C)c3)sc(C(=O)c3ccc4c(c3)OCO4)c2N)cc1 |  | inactive: -3.6%
6 | Cc1csc2nc(-c3cccc(NS(C)(=O)=O)c3)cn12 | inconclusive: 12.6 µM [cytotoxic, partial curve, poor fit] | 
7 | Cc1cc(C(=O)CN2C(=O)c3ccccc3S2(=O)=O)c(C)n1-c1ccccc1 | active: 12.6 µM | 
8 | COc1ccc(S(=O)(=O)Nc2cccc(-c3ccc(N4CCCCCC4)nn3)c2)cc1F |  | inactive: -27.8%
9 | CS(=O)(=O)N(CC(=O)NCC1CCCO1)c1cc(Cl)ccc1Cl (configuration not stated) | inconclusive: 31.6 µM [cytotoxic, single point] | 
10 | CC1=C(C(N)=O)C(c2ccccc2F)n2nc(-c3ccc(Cl)cc3)nc2N1 (configuration not stated) | inconclusive: 10 µM [cytotoxic, partial curve] | 
11 | O=C(O)c1ccc(CSc2nnc(COc3ccc(Cl)cc3Cl)o2)cc1 | inconclusive: 31.6 µM [cytotoxic, single point] | 
12 | COc1cccc(C(=O)Nc2ccc3nc4n(c(=O)c3c2)CCCCC4)c1 | inconclusive: 31.6 µM [cytotoxic, single point] | 
13 | CCN1CCN(CC(O)COc2cccc(OC)c2)CC1 (configuration not stated) | inconclusive: 0.0794 µM [cytotoxic, full curve, poor fit] | 
14 | CCCN1CCN(CCCNC(=O)c2ccc3c(c2)sc2nc(-c4ccc(OCC)cc4)cn23)CC1 | inconclusive: 15.8 µM [cytotoxic, single point] | 
15 | C=CC[C@@H]1C=C[C@@H](O/N=C2/[C@H]3O[C@@H]3[C@@H](O)[C@H]3[C@H]2CCn2c(=O)n(-c4ccccc4)c(=O)n23)[C@@H](CO)O1 |  | inactive: 11.3% [at 9.22 µM]
16 | COC(=O)CSc1nnc(SCc2ccc(OC)cc2)s1 | inconclusive: 12.6 µM [cytotoxic, partial curve] | 
17 | CN1CCN(Cc2ccc(OCc3ccccc3)cc2)CC1 | inconclusive: 15.8 µM [cytotoxic, single point] | 
18 | COC(=O)C1C(=O)c2c([nH]c(C(=O)OCC3CCCO3)c2C)CC1C (configuration not stated) | active: 12.6 µM | 
19 | O=C1CNC(=O)/C1=C\N1CCCCC1 | inconclusive: 0.251 µM [cytotoxic, full curve, poor fit] | 
20 | CC1CCN(c2csc3ccc(F)cc3c2=O)CC1 | inconclusive: 25.1 µM [cytotoxic, single point] | 
21 | O=C(O)CCC(=O)c1ccc2c(c1)OCCCO2 |  | inactive: -0.135%
22 | CCN(CC)CCn1c(=N)n(CCOc2ccccc2Cl)c2ccccc21 | inconclusive: 12.6 µM [cytotoxic, single point] | 
23 | O=C(c1ccco1)N1CCN(c2ncnc3c2[nH]c2ccc(Br)cc23)CC1 | inconclusive: 15.8 µM [cytotoxic, single point] | 
24 | CC1CCC(NC(=O)C2(C)Cc3ccccc3C(=O)N2Cc2ccc(F)cc2)CC1 (configuration not stated) |  | inactive: 5.06%

Row | Structure (SMILES) | Potency | activity change, negative = cytotoxicity
25 | CCSc1ncc(Cl)c(C(=O)Nc2c(C(=O)Nc3cccc(C)c3)oc3ccccc23)n1 |  | inactive: -2.06%
26 | COCCn1c(C)cc(C(=O)CSc2nnc(C)s2)c1C | active: 12.6 µM | 
27 | Cc1cccc(/N=C/c2c(O)[nH]c3ccccc23)n1 | inconclusive: 10 µM [cytotoxic, partial curve] | 
28 | Cc1ccc(S(=O)(=O)Nc2cccc(-c3ccc(N4CCCCC4)nn3)c2)s1 | active: 12.6 µM | 
29 | C[C@@H](CN1CCC(Cc2ccccc2)CC1)[C@H](O)c1ccc(O)cc1 |  | inactive: -21.4%
30 | O=C(NC1CCCCC1)C(c1ccncc1)N(Cc1ccc2c(c1)OCO2)C(=O)C(F)(F)F (configuration not stated) |  | inactive: -8.56%
31 | CCc1ccccc1Nc1nn2c(=O)c3ccc(C(=O)Nc4ccc(OC)cc4)cc3nc2s1 | inconclusive: 12.6 µM [cytotoxic, single point] | 
32 | CCC(=O)Nc1ccccc1-c1nc2ccccc2n(C(C)C(=O)Nc2ccc(OC)cc2)c1=O (configuration not stated) |  | inactive: 1.33%
33 | COc1ccccc1C(=O)Nc1cc(-c2ccc(C)cc2)no1 | inconclusive: 12.6 µM [cytotoxic, single point] | 
34 | O=C(CC(=O)c1ccccc1)Nc1ccc2c(c1)OCCO2 | inconclusive: 12.6 µM [cytotoxic, single point] | 
35 | CCOc1ccc(C(=O)Nc2onc3c2CCCC3)cc1 | active: 6.31 µM | 
36 | COc1ccc(CNC(=O)CCCc2nnc3n(CCC(C)C)c(=O)c4sccc4n23)cc1 |  | inactive: -4.75%
37 | C/C(N)=C(/C#N)C(=O)CSc1nc2ccc(C)cc2[nH]1 | inconclusive: 12.6 µM [cytotoxic, single point] | 
38 | CC(=O)c1cccc(-n2c(=O)c3c4c(sc3n(CC(=O)c3ccc(Cl)cc3)c2=O)CN(C(C)=O)CC4)c1 |  | inactive: 9.44%
39 | O=C(Nc1ccc(N2CCOCC2)cc1)c1cnsn1 | active: 3.98 µM | 
40 | CCCOc1ccccc1Cn1c(=O)oc2ccc(C)cc21 |  | inactive: 9.25%
41 | COc1ccc2c(C)cc(SCC(=O)Nc3nsc(-c4ccc(C(C)(C)C)cc4)n3)nc2c1 | inconclusive: 3.16 µM [cytotoxic, full curve, poor fit] | 
42 | CCCCCCCC[N+](CCCCCCCC)(CCCCCCCC)CCCCCCCC | inconclusive: 0.794 µM [cytotoxic, single point] | 
43 | COC(=O)CNC(c1ccccc1)c1cc(Br)ccc1NC(=O)c1cc(OC)c(OC)c(OC)c1 (configuration not stated) |  | inactive: 17.7%
44 | CCOc1ccc2nc(N3CCCCCC3)sc2c1 | inconclusive: 31.6 µM [cytotoxic, single point] | 
45 | CNC(=O)c1ccc(NC(=O)c2nsc3ccccc23)cc1 | active: 7.94 µM | 
46 | Cc1ccc(-c2csc(=Nc3ccccc3)n2CCCO)cc1 | inconclusive: 31.6 µM [cytotoxic, single point] | 
47 | CCOC(=O)CSc1nc(-c2ccc(OC)cc2)ns1 | inconclusive: 12.6 µM [cytotoxic, partial curve] | 
48 | O=C(c1ccc(Cl)s1)N1CCc2ccccc21 | inconclusive: 12.6 µM [cytotoxic, partial curve] | 

Row | Structure (SMILES) | Potency | activity change, negative = cytotoxicity
49 | CCS(=O)(=O)c1ncc(Cl)c(C(=O)N(Cc2ccccc2)Cc2ccco2)n1 | active: 17.8 µM | 
50 | c1ccc(-c2nc3ccccc3s2)nc1 | inconclusive: 20 µM [cytotoxic, single point] | 
51 | COc1ccc(NC(=O)c2c(C)oc3ccc(O)c(CN4CCCC(C)C4)c23)cc1Cl (configuration not stated) | inconclusive: 35.5 µM [cytotoxic, single point] | 
52 | Cc1cc(C)c(C#N)c(SCC(=O)Nc2ccccc2C#N)n1 | inconclusive: 0.0063 µM [cytotoxic, full curve, poor fit] | 
53 | Cc1ccn2c(Nc3ccc4c(c3)OCO4)c(-c3ccco3)nc2c1 | inconclusive: 20 µM [cytotoxic, single point] | 
54 | c1ccc(-c2oc3ncnc(NCCCn4ccnc4)c3c2-c2ccccc2)cc1 | inconclusive: 31.6 µM [cytotoxic, single point] | 
55 | CCC(CC)C(=O)Nc1c(C(=O)N2CCN(c3ccccc3F)CC2)oc2ccccc12 | inconclusive: 20 µM [cytotoxic, single point] | 
56 | CCC(Sc1nc2cc(OC)c(OC)cc2c(=O)n1Cc1ccc(Cl)cc1)C(=O)NCCOC (configuration not stated) |  | inactive: 8.06%
57 | S=c1[nH]nc(COc2ccc(Cl)cc2)o1 | inconclusive: 10 µM [cytotoxic, partial curve] | 
58 | COc1cccc(C(=O)Nc2ccc(C)cc2)c1 | active: 15.8 µM | 
59 | Clc1ccccc1-c1nnc(-c2ccccc2Cl)o1 | inconclusive: 15.8 µM [cytotoxic, single point] | 
60 | Cc1ccc(C)c(-n2nnc(-c3nc(-c4ccc(Cl)cc4)no3)c2N)c1 |  | inactive: 8.4%
61 | O=C1C2C(C(=O)N1c1ccncc1)C1C=CC2C12CC2 (configuration not stated) |  | inactive: -8.32%
62 | O=C(Nc1cccc(-c2nc3ncccc3o2)c1)c1ccc(-c2cccc(Cl)c2Cl)o1 | active: 10 µM | 
63 | CCOc1cccc2cc(-c3nc4sc(C(=O)Nc5ccc(C)cc5)c(C)c4c(=O)[nH]3)c(=O)oc12 |  | inactive: -2.14%
64 | COc1ccc(C(=O)NCC(c2cccnc2)N2CCN(c3ccc(F)cc3)CC2)cc1 (configuration not stated) | inconclusive: 31.6 µM [cytotoxic, single point] | 
65 | O=C(NCC(c1ccc(Cl)cc1)N1CCCCC1)c1ccc(F)cc1 (configuration not stated) | inconclusive: 4.47 µM [cytotoxic, full curve, poor fit] | 
66 | Cc1cc(S(=O)(=O)Nc2cc3c(cc2N2CCOCC2)n(C)c(=O)n3C)ccc1F |  | inactive: 19%
67 | CCOC(=O)c1c(NC(=O)c2cc(=O)c3ccc(C)cc3o2)sc(C)c1C |  | inactive: 12.2%
68 | Oc1ccc(NCc2ccc(OCc3ccccc3Cl)cc2)cc1 | inconclusive: 20 µM [cytotoxic, single point] | 
69 | O=C(Cn1ncc2c(Cl)cccc21)NCc1cccc(Br)c1 | inconclusive: 10 µM [cytotoxic, partial curve] | 
70 | COc1ccc(C(=O)NCCSc2ccccn2)cc1 | inconclusive: 15.8 µM [cytotoxic, single point] | 
71 | Cc1ccc(-c2cc(C(=O)N3CCN(c4ccccc4)CC3)c3ccccc3n2)cc1C | active: 12.6 µM | 
72 | Cc1ccc2ccc3cc(C(=O)N4CCN(c5ccccc5)CC4)nc3c2[nH]1 | inconclusive: 3.16 µM [cytotoxic, single point] | 
